Assay results reported in PubChem BioAssay (NCATS).
Inconclusive means that the source gave no clear call. Such entries were picked first, then a sample of the others. No potency is given beside an inconclusive call; the fits are too rough. Activity calls are given as the source filed them. Unless noted, calls come from the whole dose curve; as a rule, active = well fitted activation curve with a large enough effect in the main read-out, with a control signal flat (not every such curve was filed as active); inconclusive = small, poorly fitted or top-dose-only effect, or effect the other way, or a change in a side signal; inactive = flat fitted curve, though single readings scatter.

What follows are molecules tested against Mitogen-activated protein kinase 10 (Mus musculus) (UniProt Q61831) (assay: JNK3 AlphaScreen Assay (AID 530; active = well fitted curve in either direction with a large enough effect, not every such curve was filed as active; inconclusive = small, poorly fitted or top-dose-only effect, or another doubt;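 note: kinase came from lysate of stimulated human HepG2 cells; signal reports phosphorylation of biotinylated GST-cJun 1-79 at Ser73 with 10 µM ATP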; for activity change, negative = inhibition: % is set by controls: 0 for no effect and ±100 for the full control effect)). Conditions: JNK3 lysate, c-Jun phosphorylation; activity change, negative = inhibition: at 57.1 µM (top of the series).
How it was run: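 Room-temperature AlphaScreen kinase assay; pre-activated HepG2 lysate as JNK3 source, biotin-GST-cJun(1-79) substrate, 10 uM ATP, compound 15 min preincubation.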
Potency is the fitted concentration of half-maximal effect; tags give direction and shape of the fitted curve.

Structure (SMILES)	activity change, negative = inhibition	Potency
O=C(O)c1ccncc1.O=C(O)c1ccncc1.[Cl][Pt]([Cl])([Cl])[Cl]	inactive: -0.0168% [at 11.4 µM]	–
COCCn1c(=O)c(-c2ccc(OC)cc2)nc2cnc(Nc3ccccc3)nc21	–	inactive
Cn1cc(-c2nc3cnc(Oc4cccc(Cl)c4)nc3n(CCC#N)c2=O)c2ccccc21	–	inconclusive [activator, partial curve]
O=C(O)/C=C\c1c2ccc(=O)c(O)c-2oc2c(O)c(O)ccc12	–	inconclusive [inhibitor, single point]
Cc1ccc(S(=O)(=O)N[C@H](CN)C(=O)O)cc1	–	inconclusive [activator, partial curve]
O=[N+]([O-])c1ccc(CS(=O)Cc2ccccc2)cc1 (configuration not stated)	inactive: 3.41% [at 11.4 µM]	–
Nc1nc(-c2cccs2)cs1	–	inconclusive [activator, full curve]
C[C@]1(OC(=O)/C=C\c2ccccc2)C[C@@H](O)[C@@]2(O)C=CO[C@@H](O[C@H]3O[C@@H](CO)[C@@H](O)[C@@H](O)[C@@H]3O)[C@H]21	–	inactive
COc1ccc(-c2nc3cnc(N(C)C)nc3n(CCC#N)c2=O)cc1	–	inactive
O=c1cc(O)cc(/C=C\c2ccc(O)c(O)c2)o1	–	inconclusive [inhibitor, partial curve, poor fit]
CN(C)c1ncc2nc(-c3cccs3)c(=O)n(CCc3ccccc3)c2n1	–	inconclusive [activator, full curve]
O=c1c(-c2ccc(F)c(F)c2)nc2cncnc2n1C1CC1	–	inactive
O=C(O)c1cccc(CN2CCCCC2)c1	–	inconclusive [activator, full curve]
CS(=O)(=O)N1CCC2(CC1)CN(c1cccc(-c3ccccc3)c1)C2	–	inconclusive [inhibitor, single point]
Nc1c2c(nc3ccccc13)CCC[C@H]2O	–	inactive
CO/N=C(\C(=O)N[C@@H]1C(=O)N2C(C(=O)O)=C(CSc3nc(=O)c(O)nn3C)CS[C@@H]12)c1csc(N)n1	–	inconclusive [activator, partial curve, poor fit]
OC[C@@H]1O[C@@H](n2cnc3c(NC4CCCCC4)ncnc32)[C@@H](O)[C@H]1O	–	inconclusive [activator, partial curve, poor fit]
Cc1ccccc1CNc1ncnc2c1ncn2[C@@H]1O[C@@H](CO)[C@H](O)[C@@H]1O	–	inconclusive [activator, partial curve, poor fit]
Cn1cccc1C(=O)N1CCC2(CCCN(c3ccccc3)C2)CC1	–	inconclusive [inhibitor, partial curve]
COc1ncc2nc(-c3ccc(F)cc3)c(=O)n(-c3ccccc3)c2n1	–	inactive
O=[N+]([O-])c1ccc2c(N=Nc3ccc4ccccc4c3O)c(O)cc(S(=O)(=O)O)c2c1	–	inconclusive [inhibitor, partial curve]

The molecules below were run against 3',5'-cyclic-AMP phosphodiesterase 4B (Homo sapiens) (UniProt Q07343) (assay: qHTS Assay for Inhibitors of PDE-IV (AID 607; for activation (PDE inhibition): % of control where 0% means no effect)). Conditions: HEK293 ACTOne CNG channel cells, membrane potential fluorescence; activation (PDE inhibition): at 22.9 µM (top of the series).
Chain of UniProt Q07343 (Q07343 whole entry, looked up): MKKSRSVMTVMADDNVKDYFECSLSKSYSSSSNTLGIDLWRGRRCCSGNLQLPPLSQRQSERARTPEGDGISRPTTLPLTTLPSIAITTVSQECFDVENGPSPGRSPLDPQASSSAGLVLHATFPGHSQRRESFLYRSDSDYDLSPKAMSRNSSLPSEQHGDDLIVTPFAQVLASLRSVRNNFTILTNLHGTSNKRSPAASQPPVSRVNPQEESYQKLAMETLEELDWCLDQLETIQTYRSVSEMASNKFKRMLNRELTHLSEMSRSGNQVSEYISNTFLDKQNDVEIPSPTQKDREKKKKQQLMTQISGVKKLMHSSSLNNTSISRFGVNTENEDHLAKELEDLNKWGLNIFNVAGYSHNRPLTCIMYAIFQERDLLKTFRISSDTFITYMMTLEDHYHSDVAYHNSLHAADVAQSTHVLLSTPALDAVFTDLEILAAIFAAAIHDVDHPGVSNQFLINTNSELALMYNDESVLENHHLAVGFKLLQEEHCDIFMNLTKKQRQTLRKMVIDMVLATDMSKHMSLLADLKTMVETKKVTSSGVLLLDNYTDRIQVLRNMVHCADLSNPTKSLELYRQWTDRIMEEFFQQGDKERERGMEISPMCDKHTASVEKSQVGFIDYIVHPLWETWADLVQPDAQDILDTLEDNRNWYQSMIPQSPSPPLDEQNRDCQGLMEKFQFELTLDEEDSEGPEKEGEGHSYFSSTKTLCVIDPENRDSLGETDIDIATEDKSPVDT
How it was run: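 The readout is membrane depolarisation from a cAMP-sensing CNG channel, detected with a potential dye at ex 535/em 590. Cells were HEK293-derived (endogenous PDE-IV) at 1000 cells/well, titrated up to 22.9 uM final.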

Structure (SMILES)	Potency
CCC(=O)OCN1C(=O)C=CC1=O	inactive
NC[C@](O)(CS(=O)(=O)O)c1ccc(Cl)cc1	inconclusive [inhibitor, single point]
COCCn1c(=O)c(-c2ccc(OC)cc2)nc2cnc(Nc3ccccc3)nc21	inactive
Cn1cc(-c2nc3cnc(Oc4cccc(Cl)c4)nc3n(CCC#N)c2=O)c2ccccc21	inactive
COc1ccc(Oc2ncc3ncc(=O)n(CCC#N)c3n2)cc1	inconclusive [activator, partial curve]
COc1cccc(Cn2c(=O)c(C)nc3cnc(Oc4ccccc4)nc32)c1	inconclusive [rising, partial curve]
O=C(O)[C@H](Cc1ccccc1)N1C(=O)c2ccccc2C1=O	inactive
COc1ncc2nc(CCc3ccccc3)c(=O)n(Cc3ccc(F)cc3)c2n1	inconclusive [activator, partial curve]
COc1ccc(-c2nc3cnc(N(C)C)nc3n(CCC#N)c2=O)cc1	inactive
COc1ccc(-n2c(=O)cnc3cnc(Nc4ccccc4)nc32)cc1	inconclusive [activator, partial curve]
O=C(c1cnccn1)N1CCC2(CCN(Cc3nccs3)CC2)CC1	inactive
CC(C)(Oc1ccc([C@@H]2CC2(Cl)Cl)cc1)C(=O)O	inconclusive [activator, partial curve, poor fit]
N=C(N)SCCN1CCCCC1	inactive
O=C(c1ccco1)N1CCC[C@@]2(CCN(Cc3nccs3)C2)C1	inactive
COc1cccc(Cn2c(=O)cnc3cnc(OC)nc32)c1	inactive
NCCNc1ncnc2ccc(Cl)cc12	inactive
Cc1ccc(Nc2nnc(-c3ccc4c(c3)OCO4)o2)c(C)c1	inactive
S=C(CSc1ccccc1)Nc1cccc2ccccc12	inactive
Cn1cccc1C(=O)N1CCC2(CCCN(c3ccccc3)C2)CC1	inactive
O=c1c(-c2ccc(F)c(F)c2)nc2cncnc2n1-c1ccccc1	inconclusive [activator, single point]
Cc1cc(SCC(=O)c2ccc(Br)cc2)cc(C)[o+]1	inactive
